Source: PubChem BioAssay AID1345082 (National Center for Advancing Translational Sciences (NCATS), 2018)
The campaign covered roughly 94,000 compounds. About 4,000 (4.3%) were called active. Inconclusive means that the source gave no clear call. Such entries were picked first, then a sample of the others. Calls follow the shape of the dose curve; as a rule, active = well fitted inhibition curve with a large enough effect; inconclusive = small, poorly fitted or top-dose-only effect; inactive = no such curve, though single readings can be large or run the other way. A potency beside an inconclusive call is a rough fit, not a confirmed value.
Potency is read from the fitted curve at half-maximal effect; tags tell the direction and shape of the fitted curve.

Test: Cytotoxic Profiling in NIH 3T3 Cell Line of Diverse Libraries Using Quantitative High-Throughput Screening; also: nearly all actives have a fitted effect of over 55% in size
Conditions: NIH 3T3 viability, CellTiter-Glo ATP luminescence, 48-72 h; series mostly up to 96.7 µM
How it was run: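 Cells were seeded at 400 per well, treated with pin-transferred compound, and kept 48 or 72 hr at 37 °C before CellTiter-Glo addition and luminescence imaging of cellular ATP.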
For `O=C(NC1CCN(Cc2ccccc2)CC1)c1nn(CC2CC2)c2c1CNCC2`, the Potency was inconclusive: 50.1 µM [inhibitor, partial curve, poor fit].
With `COc1ccc(Cn2c(=O)c(C(=O)NCCCc3ccccc3)nc3cccnc32)cc1` the Potency was inconclusive: 50.1 µM [inhibitor, partial curve, poor fit].
For `O=C(NCC1CCCCC1)C1CCN(c2ccnc3ccnn23)CC1`, the Potency was inconclusive: 10 µM [inhibitor, full curve, poor fit].
In the case of `O=C1CCN(S(=O)(=O)c2ccccc2)CCCN(CC2CCCCC2)CCN1`, the Potency is reported as “inactive”.
For `O=C1CC2(CCN(S(=O)(=O)c3ccccc3)CC2)Oc2cc(Cl)ccc21`, the Potency was inconclusive: 12.6 µM [inhibitor, full curve, poor fit].
With `C(Cc1noc(C2CNC2)n1)OCC1CC1` the Potency was active: 15.8 µM.
For `COc1cccc(NC(=O)N[C@H]2C[C@@H](C(=O)N[C@@H](CC(C)C)C(N)=O)N(C(=O)CC(C)(C)C)C2)c1`, the Potency was inconclusive: 100 µM [inhibitor, single point].
With `COc1ccc(CCC(=O)N2CCC[C@H]2c2nc(-c3ccc(OC)c(OC)c3)no2)cc1` the Potency was inconclusive: 39.8 µM [inhibitor, partial curve].
For `Cc1nc(-c2c3n(c(=O)n(Cc4ccc(F)cc4)c2=O)CCCC3)no1`, the Potency was “inactive”.
With `COc1ccc(C(=O)N[C@@H]2C=C[C@@H](c3c(C)nn(-c4ccccc4)c3C)C2)cc1` the Potency was inconclusive: 31.6 µM [inhibitor, partial curve, poor fit].
In the case of `CCOC(=O)[C@H]1[C@@H](O)C(=O)NC12CCN(C(=O)c1ccc(C)cc1)CC2`, the Potency is reported as inconclusive: 79.4 µM [inhibitor, partial curve, poor fit].
With `COCC(=O)NC[C@H]1CCN(Cc2cccc(C)c2)C[C@H]1N(C)C` the Potency was “inactive”.
In the case of `O=C(Nc1ccc2c(c1)OCCO2)N1CCN(C(=O)N2CC3CC(C2)[C@H]2CCCC(=O)N2C3)CC1` (some centres not stated), the Potency is reported as “inactive”.
For `O=C1CC(c2noc(-c3ccc(F)cc3)n2)CN1c1ccc(F)c(Cl)c1` (configuration not stated), the Potency was inconclusive: 44.7 µM [inhibitor, partial curve, poor fit].
In the case of `Cc1cn2nc(C(=O)NCc3ccc(F)cc3F)cc2c(N2CCCC2)n1`, the Potency is reported as inconclusive: 50.1 µM [inhibitor, partial curve, poor fit].
For `CCCN1CCC2(CCN(C(=O)c3ccccc3F)CC2)Oc2ccccc21`, the Potency was inconclusive: 50.1 µM [inhibitor, partial curve, poor fit].
In the case of `COc1ccc(Cl)cc1C(=O)N1CCC(Oc2ncccc2C(=O)N2CCCCC2)C1` (configuration not stated), the Potency is reported as inconclusive: 2.82 µM [inhibitor, full curve, poor fit].
